Holding throughout (test): Primary Screen for Target Class Profiling of Small Molecule Inhibitors of Methyltransferases
The target of assay [1] is Glycine N-methyltransferase (Homo sapiens) (UniProt Q14749). To be noted: purified enzyme, MTase-Glo SAH luminescence; measured here: GNMT inhibition; at 40 µM; stronger effect = lower value. The method, boiled down:
(§1)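 Each enzyme was reacted with SAM and its substrate, with compounds tested once at 40 uM; SAH formed was read by MTase-Glo luminescence.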

Assay [2] has as its target Guanidinoacetate N-methyltransferase (Homo sapiens) (UniProt Q14353). To be noted: purified enzyme, MTase-Glo SAH luminescence; measured here: GAMT inhibition; at 40 µM; stronger effect = lower value. The method, boiled down: as §1
The target in assay [3] is Histamine N-methyltransferase (Homo sapiens) (UniProt P50135). The conditions noted are these: purified enzyme, MTase-Glo SAH luminescence; measured here: HNMT inhibition; at 40 µM; stronger effect = lower value. The method, boiled down:
as §1

Assay [4] has as its target Nicotinamide N-methyltransferase (Homo sapiens) (UniProt P40261). The conditions noted are these: purified enzyme, MTase-Glo SAH luminescence; measured here: NNMT inhibition; at 40 µM; stronger effect = lower value. The gist of the method: as §1
The target of assay [5] is Phenylethanolamine N-methyltransferase (Homo sapiens) (UniProt P11086). To be noted: purified enzyme, MTase-Glo SAH luminescence; measured here: PNMT inhibition; at 40 µM; stronger effect = lower value. The method, boiled down:
as §1

The values below come from PubChem BioAssay AID1745853 (National Center for Advancing Translational Sciences (NCATS), 2022).

The structures appear in SMILES notation. The list shows a part of the results. Further columns of the screen follow, without active or inactive calls.
On the % scale 0 is the no-effect control and ±100 the full control effect.

Consider `COc1cc2c(cc1OC)CN(C(=O)[C@@H](NCc1ccncc1)C(C)(C)C)CC2`, for which the activity change, negative = inhibition in assay [1] was -0.606%; in assay [2] it was 0.37%; in assay [3], 10.5%; in assay [4], -14.9%; in assay [5], 1.42%.

Turning to `CCOC(=O)c1ccc(Nc2nc3c(S(=O)(=O)c4ccc(C)cc4)nnn3c3ccccc23)cc1`, the activity change, negative = inhibition in assay [1] was -0.104%; in assay [2], 0%; in assay [3] it was 8.66%; in assay [4] it was 8.14%; in assay [5] it was 1.34%.

As to `O=C(Nc1ccc(-c2ccc(Cl)c(Cl)c2)cc1)C1=C(O)c2ccccc2S(=O)(=O)N1`, the activity change, negative = inhibition in assay [1] was -20.1%; in assay [2] it was 4.46%; in assay [3], 3.04%; in assay [4], -25.5%; in assay [5], 0.824%.

On to `O=C(NCc1ccccc1)[C@@H]1Cc2nc[nH]c2CN1Cc1cccc(OC(F)(F)F)c1`, for which the activity change, negative = inhibition in assay [1] is -11.7%; in assay [2] it was -7.66%; in assay [3] it was -7.19%; in assay [4], -24.9%; in assay [5], -9.58%.

Consider `CC1(C(=O)NC2CCCC2)Cn2c(nc3ccccc32)C(=O)N1CCc1ccc(Cl)cc1` (stereo not given), for which the activity change, negative = inhibition in assay [1] is 2.05%; in assay [2] it was 0%; in assay [3], 0.452%; in assay [4] it was 1.34%; in assay [5], -0.11%.

Take `N[C@@H](COP(=O)(O)O)C(=O)O`: the activity change, negative = inhibition was 11.4% in assay [1]; 14.8% in assay [2]; 15% in assay [3]; -2.02% in assay [4]; 0.949% in assay [5].

For `O=C1N[C@H](CC(=O)N2CCc3ccccc3C2)C(=O)Nc2ccccc21`, the activity change, negative = inhibition in assay [1] was -1.73%; in assay [2], -7.17%; in assay [3] it was 1.44%; in assay [4], 0.118%; in assay [5], 1.42%.

For `COCCN1C(=O)CC[C@]2(C(=O)N3CCCCCC3)CCCC[C@@H]12`, the activity change, negative = inhibition was -0.483% in assay [1]; 1.33% in assay [2]; 0.919% in assay [3]; 1.45% in assay [4]; 1.15% in assay [5].

Consider `CC1=C2CC(=O)C(C)CC/C=C(\C)CC2OC1=O` (stereo not given), for which the activity change, negative = inhibition was -3.8% in assay [1]; -5.78% in assay [2]; 4.5% in assay [3]; -13.7% in assay [4]; -11.2% in assay [5].

For the molecule `CCOC(=O)c1cc2n(n1)CC(C)(C(=O)NCc1ccccc1)N(Cc1cccc(C)c1C)C2=O` (stereo not given), the activity change, negative = inhibition in assay [1] was -4.1%; in assay [2] it was 0.454%; in assay [3], -1.02%; in assay [4], 8.37%; in assay [5], -2.42%.

Turning to `COc1ccc2c(c1)OCC(CNC(=O)c1scc3c1OCCO3)C2` (stereo not given), the activity change, negative = inhibition in assay [1] is -3.9%; in assay [2], 1.02%; in assay [3], -0.145%; in assay [4], -10.2%; in assay [5], -5.41%.

Regarding `CC(C)CCNC(=O)C1c2c(n(C)c3ccccc23)SCC(=O)N1C1CCCCCC1` (stereo not given), the activity change, negative = inhibition in assay [1] is -5.58%; in assay [2], 3.62%; in assay [3], -3.44%; in assay [4], -5.76%; in assay [5], 1.17%.

In the case of `COC1C(O)C(OC2CCC3(C)C(CCC45CCC6C7(COC(=O)C7)OC4(O)C6(C)CCC35)C2)OC(C)C1OC1OC(CO)C(OC2OC(CO)C(O)C(O)C2O)C(O)C1O` (stereo not given), the activity change, negative = inhibition in assay [1] was 3.4%; in assay [2] it was 2.81%; in assay [3] it was 7.55%; in assay [4], -9.95%; in assay [5], -3.97%.

Take `O=C(NCc1cccnc1)C1CCN(C2CCN(Cc3ccc4c(c3)CCO4)CC2)CC1`: the activity change, negative = inhibition in assay [1] was -6.71%; in assay [2] it was -10.3%; in assay [3], -18.9%; in assay [4], -18.1%; in assay [5], -15.5%.

With `Cc1ccc(CNC(=O)CSc2nnc3n(CC(C)C)c(=O)c4cc(F)ccc4n23)cc1`, the activity change, negative = inhibition in assay [1] was 1.54%; in assay [2], 0.811%; in assay [3], 8.45%; in assay [4], -6.97%; in assay [5], 3.11%.

For `COc1ccc(CC(=O)N[C@H]2[C@H](O)[C@H](O)C[C@@H]2c2cccnc2)cc1`, the activity change, negative = inhibition in assay [1] is 0.322%; in assay [2], -0.807%; in assay [3], 2.46%; in assay [4], 2.39%; in assay [5] it was -8.48%.

As to `Cc1cc(C)c(S(=O)(=O)NCCn2c(-c3ccccc3)nc3ccccc32)cc1C`, the activity change, negative = inhibition in assay [1] is -10.6%; in assay [2], 0%; in assay [3], 6.89%; in assay [4] it was -3.17%; in assay [5], 3.67%.

Take `O=C(Cn1ccc2cc(S(=O)(=O)N3CCCC3)ccc21)NCc1ccccc1Br`: the activity change, negative = inhibition in assay [1] came to 4.08%; in assay [2], 3.86%; in assay [3], 7.51%; in assay [4], 3.42%; in assay [5] it was 3.89%.

On to `CC1(C(=O)NCc2ccccc2)Cn2c(ccc2-c2ccco2)C(=O)N1Cc1ccc(F)cc1` (stereo not given), for which the activity change, negative = inhibition was -2.02% in assay [1]; 4.92% in assay [2]; 1.9% in assay [3]; -2% in assay [4]; -3.16% in assay [5].

Consider `CCCCN1C(=O)c2cc(C(=O)Nc3ccc(C)cc3)nn2CC1(C)C(=O)NC1CCCC1` (stereo not given), for which the activity change, negative = inhibition in assay [1] was 4.66%; in assay [2] it was 0%; in assay [3] it was -15.7%; in assay [4], 1.86%; in assay [5], 2.61%.

With `COc1ccc2cc3n(c2c1)CC(C)(C(=O)NC1CCCCC1)N(Cc1ccc(F)cc1)C3=O` (stereo not given), the activity change, negative = inhibition in assay [1] was 1.73%; in assay [2], 0%; in assay [3], 2.58%; in assay [4], 7.4%; in assay [5], 0.207%.

On to `O=C1NC(=NC2CCCC2)C2(CCN(Cc3cccnc3)CC2)N1c1cc(F)cc(F)c1`, for which the activity change, negative = inhibition in assay [1] is -2.82%; in assay [2], -3.43%; in assay [3], -5.93%; in assay [4] it was -7.05%; in assay [5], 6.54%.

Consider `COc1ccc(-c2cc(C(O)C3CCCCN3)c3ccccc3n2)cc1` (stereo not given), for which the activity change, negative = inhibition is -9.01% in assay [1]; -6.4% in assay [2]; -12.4% in assay [3]; -18.9% in assay [4]; -5.36% in assay [5].

On to `CCc1ccc(NC(=O)Cn2c(=O)oc3cc(S(=O)(=O)N4CCCCC4)ccc32)cc1`, for which the activity change, negative = inhibition in assay [1] is -7.97%; in assay [2], -0.301%; in assay [3], -6.51%; in assay [4] it was -23.4%; in assay [5], -11%.

For the molecule `Cc1cc2ncc(C(=O)N3CCOCC3)cn2n1`, the activity change, negative = inhibition in assay [1] is -1.36%; in assay [2], -1.15%; in assay [3] it was 1.77%; in assay [4], 4.48%; in assay [5] it was -0.093%.

Turning to `Cc1cccc(CNC(=O)C2(C)Cn3cnc(C(=O)NC4CC4)c3C(=O)N2C2CC2)c1` (stereo not given), the activity change, negative = inhibition in assay [1] was -5.02%; in assay [2] it was 3.34%; in assay [3], -3.15%; in assay [4], -6.07%; in assay [5], -2.95%.

Turning to `CCCCc1oc2ccccc2c1C(=O)c1cc(I)c(OCCN(CC)CC)c(I)c1`, the activity change, negative = inhibition is -0.586% in assay [1]; 8.13% in assay [2]; -10.8% in assay [3]; -10.8% in assay [4]; 4.2% in assay [5].

With `Cc1ccccc1NC(=O)CSc1nnc2n(CC(C)C)c(=O)c3ccc(C(=O)NC(C)C)cc3n12`, the activity change, negative = inhibition was -2.46% in assay [1]; 1.98% in assay [2]; 0.948% in assay [3]; -2.46% in assay [4]; -2.35% in assay [5].
